Reference: PubChem BioAssay AID686978 (National Center for Advancing Translational Sciences (NCATS), 2013)
In all, about 420,000 compounds went through this assay and about 64,000 (15%) were called active. The inconclusive results got no clear call from the source; some entries with a clear call stand among them for comparison. Calls come from the whole dose curve; as a rule, active = well fitted inhibition curve with a large enough effect; inconclusive = small, poorly fitted or top-dose-only effect; inactive = flat fitted curve, though single readings scatter. No potency is given beside an inconclusive call; the fits are too rough.

Assay: qHTS for Inhibitors of human tyrosyl-DNA phosphodiesterase 1 (TDP1): qHTS in cells in absence of CPT; note: nearly all actives have a fitted effect of over 55% in size
Details: DT40 Tdp1-/- hTDP1 cells, no CPT, ATP luminescence, 48 h; activity change, negative = growth inhibition: at 46.2 µM (top of the series) unless noted
Outline: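 Luminescent ATP content (CellTiter-Glo) served as the growth readout. Knockout chicken DT40 cells expressing human TDP1 were exposed to compounds without camptothecin for a minimum 48 hr at 37 °C.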
% is set by controls: 0 for no effect and ±100 for the full control effect; potency is the fitted concentration of half-maximal effect; tags give direction and shape of the fitted curve.

Row | SMILES | Potency | activity change, negative = growth inhibition
1 | Cc1ccc(OCc2ccc(C(=O)O)o2)c([N+](=O)[O-])c1 | inactive | 
2 | CC(C)c1ccc(NC(=O)NCc2ccc(F)cc2)cc1 | inconclusive [inhibitor, single point] | 
3 | COc1cc2oc3ccccc3c2cc1N(CC(=O)N(C)C)S(=O)(=O)c1ccccc1 | inconclusive [inhibitor, partial curve] | 
4 | O=C(c1ccc(CS(=O)(=O)Cc2ccc(Cl)cc2)o1)N1CCCC1 | inconclusive [inhibitor, full curve] | 
5 | Cc1cc(NC(=O)c2cccs2)ccc1NC(=O)Cc1ccccc1 | inconclusive [inhibitor, single point] | 
6 | CCC(=O)Nc1ccc(C(=O)CSc2nnc(-c3ccc(NS(=O)(=O)CC)cc3)o2)cc1OC | active: 1.16 µM | 
7 | CCc1ccc(OCc2ccc(C(=O)O)o2)cc1 | inactive | 
8 | COc1ccc(-n2c(COc3cccc4ccccc34)nnc2SC(C)C(=O)O)cc1 (stereo not drawn) |  | inconclusive: -31.6% [inhibitor]
9 | O=[N+]([O-])c1cnccc1-n1nnc2ccccc21 | active: 18.4 µM | 
10 | Cc1sc2nc3ccc(N4CCCCC4)nn3c(=O)c2c1C | inconclusive [inhibitor, single point] | 
11 | CC(C)(C)c1ccc(C(=O)NNC(=S)NCC2CCCO2)cc1 (stereo not drawn) | inconclusive [inhibitor, single point] | 
12 | C[C@H](NC(=O)C1CCN(C(=O)[C@H](Cc2ccccc2)NC(=O)OC(C)(C)C)CC1)C(=O)O | inactive | 
13 | O=C(COC(=O)c1ccc(S(=O)(=O)N2CCOCC2)cc1)NC1CCCC1 | inactive | 
14 | CCCc1nc(SCC(=O)NCc2ccco2)c2c(=O)n(C)c(=O)n(C)c2n1 | inconclusive [inhibitor, single point] | 
15 | CC(Sc1nnc(NC2CC2)s1)C(=O)Nc1ccc(N2CCOCC2)cc1 (stereo not drawn) | inactive | 
16 | O=C1CC(c2nc3ccccc3[nH]2)CN1c1cccc(Cl)c1 (stereo not drawn) | inconclusive [inhibitor, single point] | 
17 | CN1c2ccc([N+](=O)[O-])cc2N(C)C1(C)c1ccccc1 (stereo not drawn) | inconclusive [inhibitor, single point] | 
18 | CCCCN(C(=O)c1ccc(N(C)S(=O)(=O)c2ccc(C)cc2)cc1)c1c(N)n(CCCC)c(=O)[nH]c1=O | inconclusive [inhibitor, single point] | 
19 | O=C(Nc1cc(=O)c2ccccc2o1)N1CCCCC1 | inactive | 
20 | COc1cccc(CSc2nc3cc(C(=O)NC4CCCC4)ccc3c(=O)n2Cc2ccccc2)c1 | inconclusive [inhibitor, full curve, poor fit] | 
21 | Nc1nnc2c(n1)[nH]c1ccccc12 |  | inconclusive: -31% [inhibitor]
22 | CCc1nnc(N/N=C/c2c(C)[nH]c3ccccc23)n1N | inactive | 
23 | CC(=O)c1ccc(F)c(-c2cc(C)cc3c2OC(CNC(=O)Cc2ccc4c(c2)OCO4)C3)c1 (stereo not drawn) | inconclusive [inhibitor, single point] | 
24 | CCCCNc1nc2c(c(=O)n(Cc3ccc(Cl)cc3)c(=O)n2C)n1C | active: 16.4 µM | 
25 | CN(C)c1ccc(C(CNS(=O)(=O)c2ccc(F)cc2)c2c[nH]c3ccccc23)cc1 (stereo not drawn) | active: 14.6 µM | 

Row | SMILES | Potency | activity change, negative = growth inhibition
26 | CC(=O)NC(=S)Nc1cccc2ccc(C)nc12 | inactive | 
27 | O=C(NC1CCCCCCC1)c1cc(COc2ccc3ncccc3c2)on1 | active: 4.61 µM | 
28 | COC(=O)c1ccc(CSc2nc3c([nH]c4ccccc43)c(=O)n2-c2ccc(Cl)cc2)o1 | inconclusive [inhibitor, single point] | 
29 | Cc1ccc(-n2nc3c(=O)n(C(C)C(=O)NCCC4=CCCCC4)nc(C)c3c2C)cc1 (stereo not drawn) | inconclusive [inhibitor, single point] | 
30 | O=C(N/N=C/C(Br)=C/c1ccccc1)c1ccccc1F | active: 23.1 µM | 
31 | CC1=NN(/C(=N\c2nnc(C)s2)Nc2ccc(C(C)(C)C)cc2)[C@H](c2ccc(C)cc2)S1 | inconclusive [inhibitor, single point] | 
32 | O=C(O)CC1SC(N/N=C/c2ccc(Br)cc2)NC1=O (stereo not drawn) | inactive | 
33 | CCCn1c(SCC(=O)Nc2nnc(CC)s2)nnc1-c1ccncc1 | inactive | 
34 | COc1ccc(-n2cc(C(=O)NCc3ccccc3)c3ccccc3c2=O)cc1 | inconclusive [inhibitor, single point] | 
35 | O=C(CSc1nc2ccccc2n1Cc1ccccc1)N1CCN(c2ccc(F)cc2)CC1 | inactive | 
36 | CN(CCC#N)C(=S)Nc1ccc(S(=O)(=O)N2CCOCC2)cc1 | inactive | 
37 | COc1ccc(C)cc1NC(=O)C(OC(=O)CNC(=O)c1ccc(Br)cc1)c1ccccc1 (stereo not drawn) | inconclusive [inhibitor, single point] | 
38 | COc1ccc(F)cc1S(=O)(=O)NCC1CCCO1 (stereo not drawn) | inactive | 
39 | Nc1ccc(C(=O)OCCCc2nc3cc4ccccc4cc3[nH]2)cc1 | inconclusive [inhibitor, single point] | 
40 | CCc1nc(-c2cc3ccc(C)cc3[nH]c2=O)no1 | inactive | 
41 | COc1ccc(CC(=O)Nc2nn(C)c3nc4c(C)cccc4cc23)cc1 | inconclusive [inhibitor, single point] | 
42 | COc1ccccc1CNC(=O)CCCc1cn(C)c2ccccc12 | inconclusive [inhibitor, single point] | 
43 | Cc1cc(Cl)ccc1NC(=O)c1cc(S(=O)(=O)N2CCOCC2)cn1C | inconclusive [inhibitor, partial curve] | 
44 | CCOC(=O)C1=C(C)NC(=O)NC1c1ccc(OCC(=O)Nc2ccccc2)c(OC)c1 (stereo not drawn) | inconclusive [inhibitor, single point] | 
45 | Cc1cc(Cl)ccc1NC(=O)COC(=O)c1nc2nccc(C)n2n1 |  | inconclusive: -30.4% [inhibitor]
46 | CCOC(=O)C1CCCN(C(=O)c2ccc3nc(-c4ccccc4)c(-c4ccccc4)nc3c2)C1 (stereo not drawn) | active: 20.6 µM | 
47 | CN(C)c1ccc(NC(=O)CSc2nc(N)c(C(=O)Nc3ccc(N(C)C)cc3)s2)cc1 | active: 12.6 µM | 
48 | CN(C)S(=O)(=O)c1ccc(C(=O)Nc2nnc(-c3ccc4c(c3)CCCC4)o2)cc1 | active: 5.17 µM | 
49 | O=C1NC(=Nc2ccc(Cl)cc2)/C(=C/c2ccco2)S1 | inconclusive [inhibitor, single point] | 
50 | O=C(CCc1nc(-c2cccs2)no1)Nc1cccc([N+](=O)[O-])c1 | inconclusive [inhibitor, single point] | 

Row | SMILES | Potency | activity change, negative = growth inhibition
51 | CCOc1ccccc1N1CC(C(=O)NNC(=O)c2cc(OC)c(OC)c(OC)c2)CC1=O (stereo not drawn) | active: 3.66 µM | 
52 | CN(CC(=O)Nc1ccc(F)cc1)C(=O)c1cn(-c2ccccc2)nc1-c1cccs1 | inconclusive [inhibitor, single point] | 
53 | CCOc1ccc(-c2ccc(NS(=O)(=O)c3ccc(C)cc3)cc2)nn1 | inconclusive [inhibitor, single point] | 
54 | COc1ccc(CCCc2nnc(SCC(=O)Nc3ccc(C)cc3)o2)cc1 | inactive | 
55 | Cc1ccc2oc(-c3ccc(NC(=O)c4ccc5c(c4)OCO5)cc3)nc2c1 | inconclusive [inhibitor, single point] | 
56 | CCS(=O)CCSC(=N)N (stereo not drawn) | inactive | 
57 | CN(C)c1ccc(-c2nc3ccccc3c(=O)[nH]2)cc1 | inconclusive [inhibitor, partial curve] | 
58 | CCCNC(=O)c1cc(Cl)c(NC(=O)C2=C(C)OCCS2)cc1OC | inconclusive [inhibitor, single point] | 
59 | O=C(CCS(=O)(=O)c1ccc(Br)cc1)N1CCN(c2ccc(F)cc2)CC1 | active: 16.4 µM | 
60 | CCOCCCNC(=O)C1CCCCN1S(=O)(=O)c1ccc(F)cc1 (stereo not drawn) | inactive | 
61 | O=C1/C(=C/c2ccco2)CCC1C1CCCC1 (stereo not drawn) | inactive | 
62 | O=C(O)CN=C(Nc1cc(Cl)cc(Cl)c1)NC(c1ccccc1)c1ccccc1 | inconclusive [inhibitor, single point] | 
63 | Cc1ccc(C)c(N2CCN(C(c3ccccc3)c3nnc(-c4ccccc4F)o3)CC2)c1 (stereo not drawn) | active: 23.1 µM | 
64 | CCC(CO)Oc1cc(NC(=O)c2ccccc2F)c2ncn(C(C)C)c2c1 (stereo not drawn) | inconclusive [inhibitor, single point] | 
65 | Cc1c(C(=O)NCCc2ccccc2)oc2ccc(S(=O)(=O)N3CCC4(CC3)OCCO4)cc12 | inconclusive [inhibitor, single point] | 
66 | CCN(CC(=O)Nc1ccccc1OC)C(=O)c1ccc(NC(=O)c2cccs2)cc1 | inconclusive [inhibitor, partial curve, poor fit] | 
67 | Cn1c(N2CCOCC2)c(C#N)c2ccccc21 | inconclusive [inhibitor, single point] | 
68 | Fc1ccc(-c2csc(N3CCSCC3)n2)cc1 | inactive | 
69 | Cc1cc(=O)[nH]c(SCC(=O)Nc2ccc(Br)cc2)c1C#N | inconclusive [inhibitor, partial curve, poor fit] | 
70 | Cc1ccc(C(=O)Nc2sc3c(c2C(=O)NCc2ccco2)CCC(C(C)(C)C)C3)cc1 (stereo not drawn) | inactive | 
71 | O=C(NCc1ccc(F)cc1)c1cc2n(n1)CCCN(Cc1ccc(F)cc1)C2=O |  | inconclusive: -30.3% [inhibitor]
72 | Cc1ccc(C)c(N2CCN(CCCNC(=O)c3cnn(-c4ccccc4Cl)c3C3CCN(C(=O)OC(C)(C)C)CC3)CC2)c1 | active: 4.61 µM | 
73 | COc1ccc(C(=O)NCC(=O)N2CCN(c3ccc(Cl)cc3)CC2)cc1 | inconclusive [inhibitor, partial curve] | 
